# Lines with a small IC50 respond at low doses; a limit (>, <) means that the fit lies beyond the doses tested. For AUC the same curve is integrated over the 256-fold range of doses and scaled to a fraction: 1 means no effect, lower means more sensitive. For part of these data: A top dose marked as inferred was calculated from the reported fits. For part of these data: Drugs with an entry number were screened twice under separate entries, and the two screens often disagree.
# What was measured:
# Assay in all cases: Viability of human cancer cell lines after 72 h of drug (GDSC screen)
# ZM-447439 = compound: COc1cc2c(Nc3ccc(NC(=O)c4ccccc4)cc3)ncnc2cc1OCCCN1CCOCC1 [ZM-447439]; conditions: top dose inferred
# Method: (§1)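 Human cancer cell lines in 384-well plates, medium with 10% serum, drug for 72 h over a 256-fold dose range (nine 2-fold or five 4-fold steps up to the top dose). Adherent lines were fixed and stained with the nucleic acid dye Syto60, suspension lines read with resazurin; signal relative to control wells, capped at 0 and 100%. One two-parameter sigmoid per drug and line, fitted in a mixed model over all curves with the slope shared within a line.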
# PD-0332991 = compound: CC(=O)c1c(C)c2cnc(Nc3ccc(N4CCNCC4)cn3)nc2n(C2CCCC2)c1=O [PD-0332991]
# Method: as §1
# AZD6244 = compound: Cn1cnc2c(F)c(Nc3ccc(Br)cc3Cl)c(C(=O)NOCCO)cc21 [AZD6244]; conditions: screen: GDSC drug entry 1062
# Method: as §1
Cell Line,AUC (ZM-447439),IC50 (ZM-447439) [µM],AUC (PD-0332991),IC50 (PD-0332991) [µM],AUC (AZD6244),IC50 (AZD6244) [µM]
"LB373-MEL-D (melanoma, adherent, top dose 4 µM)",0.99,> 4,0.974,> 4,0.979,> 4
"LB647-SCLC (small cell lung carcinoma, semi-adherent, top dose 4 µM)",0.853,3.73,0.977,> 4,0.984,> 4
"LB771-HNC (head and neck, adherent, top dose 4 µM)",0.947,> 4,0.945,> 4,0.968,> 4
"LB831-BLC (bladder, adherent, top dose 4 µM)",0.959,> 4,0.987,> 4,0.987,> 4
"LB996-RCC (kidney, adherent, top dose 2 µM)",0.918,> 2,0.943,> 2,0.88,> 2
"LB2518-MEL (melanoma, adherent, top dose 4 µM)",0.974,> 4,0.953,> 4,0.385,0.118
"LC4-1 (lymphoblastic leukaemia, suspension, top dose 4 µM)",0.942,> 4,0.965,> 4,0.981,> 4
"LC-2-ad (lung adenocarcinoma, adherent, top dose 2 µM)",0.884,> 2,0.891,> 2,0.975,> 2
"LCLC-97TM1 (large cell lung carcinoma, adherent, top dose 4 µM)",0.796,2.09,0.778,1.78,0.644,0.652
"LK-2 (lung squamous cell carcinoma, adherent, top dose 4 µM)",0.752,1.26,0.977,> 4,0.989,> 4
"LN-18 (glioma, adherent, top dose 4 µM)",0.928,> 4,0.886,2.95,0.994,> 4
"LN-405 (glioma, adherent, top dose 4 µM)",0.948,> 4,0.971,> 4,0.924,> 4
"LNCaP-Clone-FGC (prostate, adherent, top dose 4 µM)",0.959,> 4,0.89,> 4,0.984,> 4
"LNZTA3WT4 (glioma, adherent, top dose 4 µM)",0.981,> 4,0.925,> 4,0.986,> 4
"LOU-NH91 (lung squamous cell carcinoma, adherent, top dose 4 µM)",0.958,> 4,0.921,> 4,0.982,> 4
"LOUCY (T-cell lymphoblastic leukaemia, suspension, top dose 4 µM)",0.815,1.71,0.796,1.49,0.89,3.12
"LOXIMVI (melanoma, semi-adherent, top dose 4 µM)",0.883,3.47,0.78,1.46,0.663,0.67
"LP-1 (myeloma, suspension, top dose 4 µM)",0.992,> 4,0.993,> 4,0.991,> 4
"LS-180 (large intestine, adherent, top dose 4 µM)",0.852,3.8,0.806,2.39,0.714,1.11
"LS-411N (large intestine, adherent, top dose 4 µM)",0.977,> 4,0.968,> 4,0.805,2.55
"LS-513 (large intestine, adherent, top dose 4 µM)",0.88,> 4,0.727,1.14,0.987,> 4

Cell Line,AUC (ZM-447439),IC50 (ZM-447439) [µM],AUC (PD-0332991),IC50 (PD-0332991) [µM],AUC (AZD6244),IC50 (AZD6244) [µM]
"LS-1034 (large intestine, adherent, top dose 4 µM)",0.925,> 4,0.984,> 4,0.881,> 4
"LU-134-A (small cell lung carcinoma, suspension, top dose 4 µM)",0.887,> 4,0.987,> 4,0.987,> 4
"LU-135 (small cell lung carcinoma, suspension, top dose 4 µM)",0.661,0.642,0.976,> 4,0.992,> 4
"LU-139 (small cell lung carcinoma, suspension, top dose 4 µM)",0.834,3.7,0.877,> 4,0.851,> 4
"LU-165 (small cell lung carcinoma, suspension, top dose 4 µM)",0.988,> 4,0.988,> 4,0.988,> 4
"LXF-289 (lung adenocarcinoma, adherent, top dose 4 µM)",0.795,1.82,0.745,1.24,0.976,> 4
"LoVo (large intestine, adherent, top dose 4 µM)",0.909,> 4,0.859,3.38,0.706,0.957
"M059J (glioma, adherent, top dose 4 µM)",0.913,> 4,0.985,> 4,0.967,> 4
"MC116 (B-cell lymphoma, suspension, top dose 4 µM)",0.999,> 4,0.999,> 4,0.999,> 4
"MC-CAR (haematopoietic neoplasm, suspension, top dose 4 µM)",0.828,2.12,0.818,1.95,0.905,> 4
"MC-IXC (neuroblastoma, adherent, top dose 4 µM)",0.957,> 4,0.996,> 4,0.996,> 4
"MDA-MB-157 (breast, adherent, top dose 4 µM)",0.827,2.52,0.963,> 4,0.97,> 4
"MDA-MB-330 (breast, adherent, top dose 4 µM)",0.954,> 4,0.947,> 4,0.954,> 4
"MDA-MB-361 (breast, adherent, top dose 4 µM)",0.958,> 4,0.914,> 4,0.972,> 4
"MDA-MB-415 (breast, adherent, top dose 4 µM)",0.983,> 4,0.948,> 4,0.983,> 4
"MDST8 (large intestine, adherent, top dose 4 µM)",0.959,> 4,0.906,> 4,0.859,3.28
"ME-1 (acute myeloid leukaemia, suspension, top dose 4 µM)",0.986,> 4,0.964,> 4,0.958,> 4
"ME-180 (cervix, adherent, top dose 4 µM)",0.924,> 4,0.964,> 4,0.958,> 4
"MEG-01 (chronic myeloid leukaemia, suspension, top dose 4 µM)",0.892,> 4,0.964,> 4,0.984,> 4
"MEL-HO (melanoma, adherent, top dose 4 µM)",0.919,> 4,0.928,> 4,0.421,0.151
"MEL-JUSO (melanoma, adherent, top dose 4 µM)",0.911,> 4,0.66,0.737,0.984,> 4

Cell Line,AUC (ZM-447439),IC50 (ZM-447439) [µM],AUC (PD-0332991),IC50 (PD-0332991) [µM],AUC (AZD6244),IC50 (AZD6244) [µM]
"MES-SA (uterus, adherent, top dose 4 µM)",0.92,> 4,0.966,> 4,0.992,> 4
"MFE-280 (endometrium, adherent, top dose 4 µM)",0.982,> 4,0.982,> 4,0.982,> 4
"MFE-296 (endometrium, adherent, top dose 4 µM)",0.826,2.67,0.838,2.99,0.918,> 4
"MFH-ino (soft tissue, adherent, top dose 4 µM)",0.949,> 4,0.777,1.89,0.958,> 4
"MFM-223 (breast, adherent, top dose 4 µM)",0.985,> 4,0.86,3.3,0.989,> 4
"MG-63 (osteosarcoma, adherent, top dose 4 µM)",0.949,> 4,0.702,1.02,0.883,> 4
"MHH-CALL-2 (B-cell leukaemia, suspension, top dose 4 µM)",0.997,> 4,0.996,> 4,0.989,> 4
"MHH-ES-1 (Ewing sarcoma, adherent, top dose 4 µM)",0.788,1.73,0.595,0.454,0.986,> 4
"MHH-NB-11 (neuroblastoma, adherent, top dose 4 µM)",0.865,> 4,0.435,0.163,0.898,> 4
"MHH-PREB-1 (B-cell leukaemia, suspension, top dose 4 µM)",0.949,> 4,0.536,0.311,0.985,> 4
"MIA-PaCa-2 (pancreas, adherent, top dose 4 µM)",0.788,1.94,0.699,0.967,0.943,> 4
"MKN7 (stomach, adherent, top dose 4 µM)",0.928,> 4,0.981,> 4,0.839,> 4
"MKN28 (stomach, adherent, top dose 4 µM)",0.985,> 4,0.875,> 4,0.987,> 4
"ML-2 (acute myeloid leukaemia, suspension, top dose 4 µM)",0.93,> 4,0.974,> 4,0.986,> 4
"MLMA (hairy cell leukaemia, semi-adherent, top dose 4 µM)",0.954,> 4,0.829,2.53,0.969,> 4
"MM1S (myeloma, suspension, top dose 4 µM)",0.96,> 4,0.863,3.18,0.959,> 4
"MN-60 (B-cell leukaemia, suspension, top dose 4 µM)",0.988,> 4,0.987,> 4,0.986,> 4
"MOG-G-CCM (glioma, adherent, top dose 4 µM)",0.958,> 4,0.981,> 4,0.979,> 4
"MOG-G-UVW (glioma, adherent, top dose 4 µM)",0.805,1.96,0.671,0.738,0.948,> 4
"MOLM-16 (acute myeloid leukaemia, suspension, top dose 4 µM)",0.756,1.22,0.739,1.08,0.931,> 4
